Results reported in US20220226341A1, “Pharmaceutical Composition for Alzheimer's Disease” (Kyoto University, priority 2019, published 2022).
This continues a long series; more values of the same kind are listed elsewhere.

Assay: Tissue distribution of radioactivity after single intravenous administration of 14C-labeled Compound 1 (blood-brain barrier penetration)
Format: in vivo
Conditions: rats, single iv 5 mg/kg 14C-labeled, n = 3
Description: [Testing the Penetration of the Compound Through the Blood-Brain Barrier]
Brain permeability (intracerebral transferability) of Compound 1 was evaluated.
^14C-labeled Compound 1 was intravenously administered once in a dose of 5 mg/kg (3.52 MBq/kg) to rats, and histological distribution (biodistribution) thereof was studied.

Fc1ccc(N2CCCCC2)c(NC(=S)c2ccncc2)c1 [Compound 1]
Radioactivity concentration (Blood, 5 min): 2064.57 ng eq. of Compound 1/g or mL | Radioactivity concentration (Blood, 6 h): 959.54 ng eq. of Compound 1/g or mL | Radioactivity concentration (Blood, 24 h): 109.67 ng eq. of Compound 1/g or mL | Radioactivity concentration (Blood, 72 h): 12.94 ng eq. of Compound 1/g or mL | Radioactivity concentration (Cecum, 24 h): 559.36 ng eq. of Compound 1/g or mL | Radioactivity concentration (Cecum, 72 h): 17.15 ng eq. of Compound 1/g or mL | Radioactivity concentration (Cerebellum, 5 min): 12499.69 ng eq. of Compound 1/g or mL | Radioactivity concentration (Cerebellum, 6 h): 905.96 ng eq. of Compound 1/g or mL | Radioactivity concentration (Cerebellum, 24 h): 102.6 ng eq. of Compound 1/g or mL | Radioactivity concentration (Cerebellum, 72 h): 12.62 ng eq. of Compound 1/g or mL | Radioactivity concentration (Cerebrum, 5 min): 12122.17 ng eq. of Compound 1/g or mL | Radioactivity concentration (Cerebrum, 6 h): 853.47 ng eq. of Compound 1/g or mL | Radioactivity concentration (Cerebrum, 24 h): 89.01 ng eq. of Compound 1/g or mL | Radioactivity concentration (Cerebrum, 72 h): 7.26 ng eq. of Compound 1/g or mL | Radioactivity concentration (Large intestine, 5 min): 5132.52 ng eq. of Compound 1/g or mL | Radioactivity concentration (Large intestine, 6 h): 2429.43 ng eq. of Compound 1/g or mL | Radioactivity concentration (Large intestine, 24 h): 388.61 ng eq. of Compound 1/g or mL | Radioactivity concentration (Large intestine, 72 h): 9.66 ng eq. of Compound 1/g or mL | Radioactivity concentration (Pituitary gland, 5 min): 10215.59 ng eq. of Compound 1/g or mL | Radioactivity concentration (Pituitary gland, 6 h): 849.11 ng eq. of Compound 1/g or mL | Radioactivity concentration (Pituitary gland, 24 h): 66.5 ng eq. of Compound 1/g or mL | Radioactivity concentration (Plasma, 5 min): 2644.34 ng eq. of Compound 1/g or mL | Radioactivity concentration (Plasma, 6 h): 1132.96 ng eq. of Compound 1/g or mL | Radioactivity concentration (Plasma, 24 h): 121.88 ng eq. of Compound 1/g or mL | Radioactivity concentration (Plasma, 72 h): 8.73 ng eq. of Compound 1/g or mL | Radioactivity concentration (Plasma, 168 h): 3.46 ng eq. of Compound 1/g or mL | Radioactivity concentration (Urinary bladder, 5 min): 2474.13 ng eq. of Compound 1/g or mL | Radioactivity concentration (Urinary bladder, 6 h): 7563.63 ng eq. of Compound 1/g or mL | Radioactivity concentration (Urinary bladder, 24 h): 356.22 ng eq. of Compound 1/g or mL | Radioactivity concentration (Urinary bladder, 72 h): 19.22 ng eq. of Compound 1/g or mL
